According to the supplement of paper PMC8728848:
This is one part of the list.

What was measured:
Test in all cases: glycan array binding signal (z-score within array); higher = stronger binding
Details in all cases: glycan notation: IUPAC condensed, linker removed
[1] = molecular target: GlcNAc(b1-4)GlcNAc(b1-4)GlcNAc(b1-4)GlcNAc(b1-4)GlcNAc(b1-4)GlcNAc
Summary of the method: (§1)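 Arrays were curated from the Consortium for Functional Glycomics database, 3228 in total, and kept only where the protein sequence was available. Binding is expressed as a within-array Z-score. This score was averaged across arrays of the same protein sequence at different concentrations or buffers and across linkers, and negative values can be read as non-binding.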

[2] = molecular target: GlcNAc(b1-4)[GlcNAc(b1-6)]GalNAc
Summary of the method: as §1

[3] = molecular target: GlcNAc(b1-6)Gal(b1-4)GlcNAc
Summary of the method: as §1

[4] = molecular target: GlcNAc(b1-6)GalNAc
Summary of the method: as §1

[5] = molecular target: GlcNAc6S(b1-3)Gal(b1-4)GlcNAc
Summary of the method: as §1

[6] = molecular target: Kdn(a2-3)Gal(b1-3)GalNAc
Summary of the method: as §1

[7] = molecular target: Kdn(a2-3)Gal(b1-3)GlcNAc
Summary of the method: as §1

[8] = molecular target: Kdn(a2-3)Gal(b1-4)Glc
Summary of the method: as §1

[9] = molecular target: Kdn(a2-3)Gal(b1-4)GlcNAc
Summary of the method: as §1

[10] = molecular target: Kdn(a2-3)Gal(b1-4)[Fuc(a1-3)]GlcNAc
Summary of the method: as §1

[11] = molecular target: Kdn(a2-6)Gal(b1-4)GlcNAc
Summary of the method: as §1

[12] = molecular target: Man(a1-2)Man(a1-2)Man(a1-3)Man
Summary of the method: as §1

[13] = molecular target: Man(a1-2)Man(a1-2)Man(a1-6)[Man(a1-3)]Man
Summary of the method: as §1

[14] = molecular target: Man(a1-2)Man(a1-3)Man
Summary of the method: as §1

[15] = molecular target: Man(a1-2)Man(a1-3)[Man(a1-2)Man(a1-6)]Man
Summary of the method: as §1

[16] = molecular target: Man(a1-2)Man(a1-3)[Man(a1-2)Man(a1-6)]Man(a1-6)[Man(a1-2)Man(a1-2)Man(a1-3)]Man
Summary of the method: as §1

[17] = molecular target: Man(a1-2)Man(a1-3)[Man(a1-2)Man(a1-6)]Man(a1-6)[Man(a1-2)Man(a1-2)Man(a1-3)]Man(b1-4)GlcNAc(b1-4)GlcNAc
Summary of the method: as §1

[18] = molecular target: Man(a1-2)Man(a1-3)[Man(a1-6)]Man(a1-6)[Man(a1-2)Man(a1-3)]Man(b1-4)GlcNAc(b1-4)GlcNAc
Summary of the method: as §1

[19] = molecular target: Man(a1-2)Man(a1-6)[Man(a1-3)]Man(a1-6)[Man(a1-2)Man(a1-2)Man(a1-3)]Man
Summary of the method: as §1

[20] = molecular target: Man(a1-2)Man(a1-6)[Man(a1-3)]Man(a1-6)[Man(a1-2)Man(a1-2)Man(a1-3)]Man(b1-4)GlcNAc(b1-4)GlcNAc
Summary of the method: as §1

[21] = molecular target: Man(a1-3)[Man(a1-6)]Man
Summary of the method: as §1

[22] = molecular target: Man(a1-3)[Man(a1-6)]Man(a1-6)[Man(a1-2)Man(a1-3)]Man(b1-4)GlcNAc(b1-4)GlcNAc
Summary of the method: as §1

[23] = molecular target: Man(a1-3)[Man(a1-6)]Man(a1-6)[Man(a1-3)]Man
Summary of the method: as §1

[24] = molecular target: Man(a1-3)[Man(a1-6)]Man(a1-6)[Man(a1-3)]Man(b1-4)GlcNAc(b1-4)GlcNAc
Summary of the method: as §1

[25] = molecular target: Man(a1-3)[Man(a1-6)]Man(b1-4)GlcNAc(b1-4)GlcNAc
Summary of the method: as §1

[26] = molecular target: Man(a1-3)[Man(a1-6)]Man(b1-4)GlcNAc(b1-4)[Fuc(a1-6)]GlcNAc
Summary of the method: as §1

[27] = molecular target: Man(a1-6)Man
Summary of the method: as §1

[28] = molecular target: Man(b1-4)GlcNAc
Summary of the method: as §1

[29] = molecular target: MurNAc(b1-4)GlcNAc
Summary of the method: as §1

[30] = molecular target: Neu5Ac(a2-3)Gal
Summary of the method: as §1

[31] = molecular target: Neu5Ac(a2-3)Gal(b1-3)GalNAc
Summary of the method: as §1

[32] = molecular target: Neu5Ac(a2-3)Gal(b1-3)GalNAc(b1-3)Gal(a1-4)Gal(b1-4)Glc
Summary of the method: as §1

[33] = molecular target: Neu5Ac(a2-3)Gal(b1-3)GalNAc(b1-4)Gal(b1-4)Glc
Summary of the method: as §1

[34] = molecular target: Neu5Ac(a2-3)Gal(b1-3)GalNAc(b1-4)[Neu5Ac(a2-3)]Gal(b1-4)Glc
Summary of the method: as §1

[35] = molecular target: Neu5Ac(a2-3)Gal(b1-3)GalNAc(b1-4)[Neu5Ac(a2-8)Neu5Ac(a2-3)]Gal(b1-4)Glc
Summary of the method: as §1

[36] = molecular target: Neu5Ac(a2-3)Gal(b1-3)GalNAc6S
Summary of the method: as §1

[37] = molecular target: Neu5Ac(a2-3)Gal(b1-3)GlcNAc
Summary of the method: as §1

[38] = molecular target: Neu5Ac(a2-3)Gal(b1-3)GlcNAc(b1-2)Man
Summary of the method: as §1

[39] = molecular target: Neu5Ac(a2-3)Gal(b1-3)GlcNAc(b1-2)Man(a1-3)[GlcNAc(b1-4)][Neu5Ac(a2-3)Gal(b1-3)GlcNAc(b1-2)Man(a1-6)]Man(b1-4)GlcNAc(b1-4)GlcNAc
Summary of the method: as §1

[40] = molecular target: Neu5Ac(a2-3)Gal(b1-3)GlcNAc(b1-2)Man(a1-3)[Neu5Ac(a2-3)Gal(b1-3)GlcNAc(b1-2)Man(a1-6)]Man(b1-4)GlcNAc(b1-4)GlcNAc
Summary of the method: as §1

[41] = molecular target: Neu5Ac(a2-3)Gal(b1-3)GlcNAc(b1-2)[Neu5Ac(a2-3)Gal(b1-3)GlcNAc(b1-4)]Man(a1-6)[Neu5Ac(a2-3)Gal(b1-3)GlcNAc(b1-2)Man(a1-3)]Man(b1-4)GlcNAc(b1-4)GlcNAc
Summary of the method: as §1

[42] = molecular target: Neu5Ac(a2-3)Gal(b1-3)GlcNAc(b1-3)Gal(b1-3)GlcNAc
Summary of the method: as §1

[43] = molecular target: Neu5Ac(a2-3)Gal(b1-3)GlcNAc(b1-3)Gal(b1-4)GlcNAc
Summary of the method: as §1

[44] = molecular target: Neu5Ac(a2-3)Gal(b1-3)GlcNAc(b1-3)GalNAc
Summary of the method: as §1

[45] = molecular target: Neu5Ac(a2-3)Gal(b1-3)GlcNAc(b1-6)GalNAc
Summary of the method: as §1

B1: Pwp4 (Candida glabrata) (protein)
chain: MGSSHHHHHHSSGLVPRGSHMASVGNPITVSNVCSFPKNWHRTAGFRALTARLGIGIQSDSYKELLNYPGTFQLTTQQSSTTKPNFQISGLVGNIYGLTIVPSYLLVELTGYFVPPVSGEYTFSLEGSDDAAIIFIANPSTFKCGHVEDWPTAYDNDVTVTESIHATRTIYMIEGVAYPIRIAYYNGLSLGKLQASFTDPEGVKRVDWNGYIWRYDSCDTCSYV
**Q.** Which results are given for B1?
**A.** glycan array binding signal (z-score) [1]: -0.361; glycan array binding signal (z-score) [2]: -0.596; glycan array binding signal (z-score) [3]: -0.407; glycan array binding signal (z-score) [4]: -0.456; glycan array binding signal (z-score) [5]: -0.195; glycan array binding signal (z-score) [6]: -0.337; glycan array binding signal (z-score) [7]: 1.6; glycan array binding signal (z-score) [8]: -0.259; glycan array binding signal (z-score) [9]: -0.444; glycan array binding signal (z-score) [10]: -0.531; glycan array binding signal (z-score) [11]: 0.025; glycan array binding signal (z-score) [12]: 0.3; glycan array binding signal (z-score) [13]: -0.597; glycan array binding signal (z-score) [14]: -0.626; glycan array binding signal (z-score) [15]: -0.658; glycan array binding signal (z-score) [16]: -0.159; glycan array binding signal (z-score) [17]: -0.193; glycan array binding signal (z-score) [18]: -0.58; glycan array binding signal (z-score) [19]: -0.523; glycan array binding signal (z-score) [20]: -0.373; glycan array binding signal (z-score) [21]: -0.546; glycan array binding signal (z-score) [22]: -0.235; glycan array binding signal (z-score) [23]: 0.799; glycan array binding signal (z-score) [24]: -0.094; glycan array binding signal (z-score) [25]: 0.474; glycan array binding signal (z-score) [26]: 0.529; glycan array binding signal (z-score) [27]: -0.868; glycan array binding signal (z-score) [28]: -0.403; glycan array binding signal (z-score) [29]: -0.449; glycan array binding signal (z-score) [30]: 0.361; glycan array binding signal (z-score) [31]: 0.985; glycan array binding signal (z-score) [32]: -0.123; glycan array binding signal (z-score) [33]: 1.86; glycan array binding signal (z-score) [34]: -0.275; glycan array binding signal (z-score) [35]: 1.36; glycan array binding signal (z-score) [36]: -0.345; glycan array binding signal (z-score) [37]: -0.607; glycan array binding signal (z-score) [38]: -0.557; glycan array binding signal (z-score) [39]: 0.277; glycan array binding signal (z-score) [40]: -0.164; glycan array binding signal (z-score) [41]: -0.334; glycan array binding signal (z-score) [42]: -0.683; glycan array binding signal (z-score) [43]: -0.596; glycan array binding signal (z-score) [44]: -0.305; glycan array binding signal (z-score) [45]: -0.39
